Data from paper PMC3160285, “Fukutin-Related Protein Resides in the Golgi Cisternae of Skeletal Muscle Fibres and Forms Disulfide-Linked Homodimers via an N-Terminal Interaction” (PLoS ONE, 2011).
Numbering of substitutions follows the chain as printed. Results are given in words; binding and its absence hold for the method and conditions named. For some assays here: Binding seen in cells or lysates may run through a third protein. Some entries that bind do so weakly or less than the wild type. For some assays here: Tags and fused reporters may be left off the sequences shown. One block for each binder: values may come before it.

Experiments:
[1] = biological target: Full length FKRP, C-terminally tagged with HA (FKRP-HA) or Myc (FKRP-Myc) (human) (UniProt Q9H9S5); assay: condition: only lysates of separate solo transfections mixed after lysis (RT, 30 min); co-IP; lysates of separate solo transfections of FKRP-Myc and FKRP-HA (COS-7, 5 mM NEM) mixed and incubated at RT for 30 min, then anti-Myc precipitation; blot with anti-HA
[2] = biological target: Full length FKRP, C-terminally tagged with HA (FKRP-HA) or Myc (FKRP-Myc) (human) (UniProt Q9H9S5); assay: co-IP; COS-7 cells co-transfected with FKRP-Myc and FKRP-HA; lysate with 5 mM NEM; agarose-coupled anti-Myc antibody, 4°C, 45 min; reducing SDS-PAGE, blot with anti-HA
FKRP-Cys6Ser (human) = FKRP-Cys6Ser (human) (UniProt Q9H9S5); assay: SDS-PAGE (non-reducing and reducing) with Western blot; cleared COS-7 lysates prepared with 5 mM NEM; untreated or reduced with 330-400 mM DTT at RT for 30 min; 4-12% gel; detection with FKRP207 antibody
FKRP-157-Cys6Ser (human) = FKRP-157-Cys6Ser (human) (UniProt Q9H9S5); assay: as above
[3] = biological target: FKRP32-494 (yeast two-hybrid fusions N-LexA-FKRP32-494-C and N-GAL4-FKRP32-494-C) (human) (UniProt Q9H9S5); assay: two-hybrid; pairwise; LexA-DBD bait (pB27) and Gal4-AD prey (pP7) in diploid yeast; growth on DO-3 medium lacking Trp, Leu and His (HIS3 reporter)

binding [1]: no binding
binding [2]: binds
B1: Full length FKRP, C-terminally tagged with HA (FKRP-HA) or Myc (FKRP-Myc) (protein, UniProt Q9H9S5 1-495)
chain: MRLTRCQAALAAAITLNLLVLFYVSWLQHQPRNSRARGPRRASAAGPRVTVLVREFEAFDNAVPELVDSFLQQDPAQPVVVAADTLPYPPLALPRIPNVRLALLQPALDRPAAASRPETYVATEFVALVPDGARAEAPGLLERMVEALRAGSARLVAAPVATANPARCLALNVSLREWTARYGAAPAAPRCDALDGDAVVLLRARDLFNLSAPLARPVGTSLFLQTALRGWAVQLLDLTFAAARQPPLATAHARWKAEREGRARRAALLRALGIRLVSWEGGRLEWFGCNKETTRCFGTVVGDTPAYLYEERWTPPCCLRALRETARYVVGVLEAAGVRYWLEGGSLLGAARHGDIIPWDYDVDLGIYLEDVGNCEQLRGAEAGSVVDERGFVWEKAVEGDFFRVQYSESNHLHVDLWPFYPRNGVMTKDTWLDHRQDVEFPEHFLQPLVPLPFAGFVAQAPNNYRRFLELKFGPGVIENPQYPNPALLSLTGSG

binding (FKRP-Cys6Ser (human)): no binding
B2: FKRP-Cys6Ser (protein, UniProt Q9H9S5 1-495)
chain: B1 chain with C6S

binding (FKRP-157-Cys6Ser (human)): no binding
B3: FKRP-157-Cys6Ser (domain or fragment, UniProt Q9H9S5 1-157)
chain: MRLTRSQAALAAAITLNLLVLFYVSWLQHQPRNSRARGPRRASAAGPRVTVLVREFEAFDNAVPELVDSFLQQDPAQPVVVAADTLPYPPLALPRIPNVRLALLQPALDRPAAASRPETYVATEFVALVPDGARAEAPGLLERMVEALRAGSARLVA

binding [3]: binds
B4: FKRP32-494 (yeast two-hybrid fusions N-LexA-FKRP32-494-C and N-GAL4-FKRP32-494-C) (domain or fragment, UniProt Q9H9S5 32-494)
chain: RNSRARGPRRASAAGPRVTVLVREFEAFDNAVPELVDSFLQQDPAQPVVVAADTLPYPPLALPRIPNVRLALLQPALDRPAAASRPETYVATEFVALVPDGARAEAPGLLERMVEALRAGSARLVAAPVATANPARCLALNVSLREWTARYGAAPAAPRCDALDGDAVVLLRARDLFNLSAPLARPVGTSLFLQTALRGWAVQLLDLTFAAARQPPLATAHARWKAEREGRARRAALLRALGIRLVSWEGGRLEWFGCNKETTRCFGTVVGDTPAYLYEERWTPPCCLRALRETARYVVGVLEAAGVRYWLEGGSLLGAARHGDIIPWDYDVDLGIYLEDVGNCEQLRGAEAGSVVDERGFVWEKAVEGDFFRVQYSESNHLHVDLWPFYPRNGVMTKDTWLDHRQDVEFPEHFLQPLVPLPFAGFVAQAPNNYRRFLELKFGPGVIENPQYPNPALLSLTGS
